Reference: PubChem BioAssay (NCATS)
Inconclusive means that the source gave no clear call. Such entries were picked first, then a sample of the others. No potency is given beside an inconclusive call; the fits are too rough. Calls of active or inactive are those of the source. Calls come from the whole dose curve; as a rule, active = well fitted cell-killing curve with a large enough effect; inconclusive = small, poorly fitted or top-dose-only effect, or effect the other way; inactive = no such curve, though single readings can be large or run the other way.

Assay: Viability qHTS for spleen associated tyrosine kinase inhibitor (SYKi) drug resistant MV4-11 cells (AID 1963824); note: nearly all actives have a fitted effect of over 35% in size
Source text: Department of Medicine, Hematology/Oncology
University Hospital Frankfurt, Germany.
Trials have shown promising clinical activity of the selective SYK inhibitor entospletinib in patients with high expressing HOXA9/MEIS1 acute leukemias. As the development of resistance mechanisms is a common problem in the use of targeted drugs, we performed a chemical library screen to identify drug sensitivities in SYK inhibitor resistant AML cells. […] Glucocorticoids are potent immunosuppressants which work in part by inhibiting the transcription of cytokine genes.
Described herein is a viability screen to look for activity in the SYK inhibitor drug resistant cell line against four NCATS compound libraries (MIPE 5.0, NPC, NPACT, and Kinase) totaling 11372 compounds. Active hits were reacquired for confirmation and further secondary assay testing.
SEQUENCE No. (e.g., 1, 2, 3, etc.); […] (e.g., Cells, Incubation, Reagent, etc.); VALUE; DESCRIPTION.
1; Media; 2uL; white, solid-bottom Corning assay plate.
2; Compounds; 23nL; Echo acoustic dispenser. […]
7; Detection; Luminescence; ViewLux plate reader (PerkinElmer). […]
1. Quantitative high-throughput screening (qHTS) of small molecule compounds was conducted on drug resistant SYKi MV4-11 cell line. […]
5. Viability was assessed by adding 3uL of CellTiter-Glo detection reagent (Promega). […]
7. Luminescence was measured on a ViewLux plate reader (PerkinElmer).
Potency is the fitted concentration of half-maximal effect; tags give direction and shape of the fitted curve.

| Compound | Potency |
| --- | --- |
| COC(=O)[C@]12CCC(C)(C)C[C@H]1[C@H]1C(=O)C=C3[C@@]4(C)C=C(C#N)C(=O)C(C)(C)[C@@H]4CC[C@@]3(C)[C@]1(C)CC2 | active: 2.63 µM |
| CCOc1ccc(Oc2ccc(OCc3cc(F)ccc3F)cc2)c(N)c1 | inconclusive [cytotoxic, single point] |
